The campaign covered roughly 150,000 compounds. About 540 (0.36%) showed an effect of 50% or more. This is one part of the list.

This experiment has as its system Plasmodium falciparum. The experiment in a line: Primary screen in NF54 nanoGlo assay, in single point, at 2uM, 72h; a lower Z score goes with more inhibition. The class given is functional, Erythrocyte. To be noted: timepoint 72 hour.
Broadly, the % Inhibition is the change of the read-out against control, counted positive when it falls. Take `Cc1ccc(-n2ccc3nc(N4CCc5ccccc5C4)ncc3c2=O)cc1C`: the “% Inhibition” value is reported as 39% and the Z score was -4.99.

Regarding `O=C(c1ccc(CS(=O)(=O)Cc2ccccc2F)o1)N1CCOCC1`, the “% Inhibition” value worked out at 0% and the Z score came out at 0.06.

Turning to `CN(c1ccc2ccccc2n1)S(=O)(=O)c1cccnc1`, the “% Inhibition” value was -8% and the Z score is listed as 1.44.

As for `Cc1ccc(Cn2c(=O)c(C(=O)N[C@@H](C)c3ccccc3)nn(-c3cc(C)cc(C)c3)c2=O)cc1`, the “% Inhibition” value is 5% and the Z score is on record as -0.6.

Turning to `Cc1ccc(C)c([C@H]2CC(=O)Nc3c2c(C)nn3-c2nncc(-c3ccccc3)n2)c1`, the “% Inhibition” value stood at 13% and the Z score is listed as -2.38.

For `COc1cc(NC(=O)CCc2nc(CS(=O)(=O)c3ccc(C)cc3)no2)cc(OC)c1OC`, the “% Inhibition” value is recorded as 4% and the Z score is recorded as -0.77.

In the case of `CN1CCN(CC(=O)NCCc2ccc(F)cc2)C(C)(C)C1=O`, the “% Inhibition” value was -10% and the Z score was 2.09.

On to `C#CCN1CCN(C(=O)c2cc3c([nH]c2=O)CCCCC3)CC1`, for which the “% Inhibition” value is given as -10% and the Z score is given as 1.19.

Regarding `Cn1cc(CNc2ccc3c[nH]nc3c2)cn1`, the “% Inhibition” value amounted to 31% and the Z score was -0.37.

`O=C1C2C3CCC(CC3)C2C(=O)N1c1ccccc1` (stereo unspecified): the “% Inhibition” value is on record as -8% and the Z score stood at 0.99.

For `O=C(NC[C@H]1CCCS1(=O)=O)N1CCc2cc(-c3ccccc3)oc2C1`, the “% Inhibition” value is on record as -12% and the Z score is 1.21.

As for `CCN1CCC[C@@H]1CNC(=O)c1c(C)c(S(=O)(=O)N2CCC(C)CC2)c(C)n1C`, the “% Inhibition” value is on record as -4% and the Z score was 0.78.

`CCN1CN([C@@H](C)C(=O)N(C)C)CC1=O`: the “% Inhibition” value was -12% and the Z score came to 1.02.

`C[C@@H](CC(=O)c1ccccc1)NC(=O)CNC(=O)C(C)(C)C`: the “% Inhibition” value was -5% and the Z score amounted to 0.75.

Consider `CCOC(=O)c1nc2ccccc2nc1N1CCCN(S(=O)(=O)c2c(C)cc(C)cc2C)CC1`, for which the “% Inhibition” value is -15% and the Z score is 2.19.

With `Cn1cnc2ccc(-c3ccc4c(c3)CCN4)cc21`, the “% Inhibition” value was -14% and the Z score is 1.48.

Regarding `Cc1cc(C)c(C(=O)O)cc1NC(=O)C[C@H]1CCCCO1`, the “% Inhibition” value came out at 8% and the Z score is -0.97.

With `Cc1nn(C)cc1-c1csc(NC(=O)c2ccccc2COc2ccc(F)cc2F)n1`, the “% Inhibition” value is on record as -18% and the Z score is 2.67.

Consider `O=C(NCc1cccnc1)c1cccc(OCCc2ccccc2)c1`, for which the “% Inhibition” value was -19% and the Z score was determined as 2.22.

On to `O=C(NCc1ccco1)C(F)(F)C(F)(F)C(=O)NCc1ccco1`, for which the “% Inhibition” value is given as -3% and the Z score turned out to be 0.39.

On to `CC(C)(C)c1ccc(Cn2cnc3c2c(=O)n(CCc2ccccc2)c(=O)n3-c2ccc(Cl)cc2)cc1`, for which the “% Inhibition” value was -5% and the Z score was found to be 0.7.

On to `Cc1nn(CC(=O)NCCCN2CCCC2=O)c(=O)c2nc(-c3ccccc3)sc12`, for which the “% Inhibition” value is on record as -18% and the Z score was 2.46.

On to `CCCOc1ccc(CN2CCO[C@]3(CCOC3)C2)cc1OCC`, for which the “% Inhibition” value is given as -13% and the Z score was 1.56.

Regarding `Cc1nc(CN[C@@H](C)CCn2ccnc2C)cs1`, the “% Inhibition” value is on record as -4% and the Z score worked out at 0.6.

`CN(C)S(=O)(=O)NCCCC[C@H]1CCCO1`: the “% Inhibition” value is recorded as -21% and the Z score was 2.13.

On to `CS(=O)(=O)CC1(CC(=O)N(CC#N)c2cccc(F)c2)CC1`, for which the “% Inhibition” value is -12% and the Z score turned out to be 1.27.

With `CC(C)c1cc(C(=O)N(C)Cc2csc(-c3ccccc3)n2)on1`, the “% Inhibition” value is reported as -20% and the Z score was 2.18.

As to `CCc1nc(N2CCC(C(=O)NCc3ccc(N(C)C)cc3)CC2)c2c(C)scc2n1`, the “% Inhibition” value is reported as 4% and the Z score is -0.7.

Consider `Cc1cc(C(=O)NCc2ccccc2F)c2c(=O)n(C)c(=O)n(C)c2n1`, for which the “% Inhibition” value was -9% and the Z score is recorded as 1.18.

`C[C@@H](CCN1CCCC1=O)NC(=O)Cc1cccc(O)c1`: the “% Inhibition” value is -9% and the Z score turned out to be 1.27.

Consider `CN(C(=O)Cn1ccc2ccccc2c1=O)c1ccccc1`, for which the “% Inhibition” value was -1% and the Z score is listed as 0.24.

Regarding `Cc1ccnc2ccc(C(=O)N3CC(n4ccnn4)C3)cc12`, the “% Inhibition” value was determined as 4% and the Z score was -0.48.

With `Cc1cnc2c(Cl)c(C(=O)N3CCN4CCN(C)C(=O)[C@@H]4C3)nn2c1`, the “% Inhibition” value is on record as -12% and the Z score is 2.33.

On to `COCCCNC(=O)[C@]1(C)Cn2nc(-c3ccccc3)cc2C(=O)N1Cc1ccc(Cl)cc1`, for which the “% Inhibition” value came out at 3% and the Z score is on record as -0.45.

On to `Cc1cc2c(cc1C)O[C@H](C(=O)NCC1(c3ccccn3)CC1)C2`, for which the “% Inhibition” value is reported as -4% and the Z score is 0.37.

With `O=C(Cc1cccnc1)N[C@H]1CCCN(Cc2cccc(Cl)c2)CC1`, the “% Inhibition” value is reported as -12% and the Z score came to 1.63.

As for `O=C(Nc1ccc(OCc2ccccc2)cc1)N[C@H]1CCOC1`, the “% Inhibition” value is -15% and the Z score came out at 1.92.

For the molecule `CCCn1cnnc1CN(C)Cc1ccncc1C`, the “% Inhibition” value is reported as -11% and the Z score is on record as 1.06.

`Cc1ccc(NC(=O)Cn2nc3ccc(C(=O)NCc4ccccc4)cn3c2=O)cc1`: the “% Inhibition” value was -20% and the Z score amounted to 1.76.

As to `O=C(N[C@@H](Cc1ccccc1)C(=O)N1CCc2ccccc2C1)c1cccnc1`, the “% Inhibition” value is recorded as -8% and the Z score is given as 1.

In the case of `COCCNCCCOc1ccc(Br)cc1Cl`, the “% Inhibition” value is recorded as -12% and the Z score is 1.67.

Turning to `COC(=O)C1CC(Oc2ccccc2F)CN1C(=O)c1cnccn1` (stereo unspecified), the “% Inhibition” value is -4% and the Z score is reported as 0.68.

As to `CC(C)C1CN(Cc2cnc3ccnn3c2)C1`, the “% Inhibition” value stood at 2% and the Z score is on record as -0.32.

Turning to `CN(C)S(=O)(=O)c1ccc(C(=O)N2C3CCC2CC(n2cncn2)C3)cc1` (stereo unspecified), the “% Inhibition” value is given as -9% and the Z score was 1.09.

Regarding `O=C(NCc1ccccc1OCC1CC1)c1c[nH]nc1C1CC1`, the “% Inhibition” value is on record as -2% and the Z score came to 0.16.

Take `O=C(NC[C@H]1CCCO1)c1n[nH]c2c1CCCCCC2`: the “% Inhibition” value is recorded as 1% and the Z score is -0.09.

In the case of `CC(=O)N1CCC(C(=O)N2CC[C@@H]3OCc4cccc(c4)Oc4ccc(cc4)CCC(=O)N(CCCO)CC(=O)N[C@H]3C2)CC1`, the “% Inhibition” value is given as -6% and the Z score was determined as 1.21.

Consider `CC(C)C(NCC(O)C(F)(F)F)c1ccccn1` (stereo unspecified), for which the “% Inhibition” value is -10% and the Z score stood at 1.78.

Turning to `C/C(=C\c1ccco1)CN1CC[C@H](CNC(=O)c2ccc[nH]2)C1`, the “% Inhibition” value is -10% and the Z score is 1.92.

Turning to `Cc1ncc(CN2CCC(n3nccc3NC(=O)[C@H]3CCOC3)CC2)s1`, the “% Inhibition” value was -5% and the Z score was 0.92.

Consider `O=C(C1CCN(c2ccc(-c3cccs3)nn2)CC1)N1CCCN(Cc2ccccc2Cl)C1`, for which the “% Inhibition” value is given as -3% and the Z score is 0.53.

As for `Cc1nc(CNC(=O)N(C)CC2(c3ccccc3)CC2)no1`, the “% Inhibition” value is -13% and the Z score was 2.45.

With `O=C(Nc1ccc2c(c1)OCO2)N1CCCN(Cc2ccc(Cl)cc2)CC1`, the “% Inhibition” value is recorded as -5% and the Z score came to 0.55.

These data come from ChEMBL document CHEMBL4888484, “Replenishing the malaria drug discovery pipeline: Screening and hit evaluation of the MMV Hit Generation Library 1 (HGL1) against asexual blood stage Plasmodium falciparum ,using a nano luciferase reporter read-out” (2022).
